# Assay results as given in PubChem BioAssay AID463173 (ICCB-Longwood Screening Facility, Harvard Medical School, 2010).
# The campaign covered roughly 52,000 compounds. About 1,700 (3.3%) were called active. No stated cut-off is given here; in the data, active means survival mostly below about 52% (no sharp cut-off); inactive means mostly above about 56%. The list shows a part of the results.
# Tested on: Wild type
# Experiment: S. aureus survival, RN4220 and DeltatarO strains – OD600, teichoic acid synthesis inhibitors, primary screen (AID 463173)
# Details: S. aureus RN4220 wild type/DeltatarO growth, OD600, 18 h, hits give low values, screened at 18.75 µg/mL (by protocol)
row,SMILES,survival
1,CC(=O)Nc1ccc2oc(-c3ccccc3)nc2c1,inactive: 104%
2,CCCN(c1ccc(C(C)C)cc1)S(=O)(=O)c1ccc2c(c1)CCN2C(=O)CC,inactive: 118%
3,CCc1c(C)nc(N)n2c(SCc3ccc(C(F)(F)F)cc3)nnc12,inactive: 101%
4,NC(Cc1ccc2nsnc2c1)C(=O)O (stereo unspecified),inactive: 114%
5,CCc1nonc1NC(=O)c1oc2ccc(F)cc2c1C,inactive: 89%
6,c1ccc2c(c1)n1cnnc1c1nncn21,inactive: 93%
7,CN(C)c1ccc(CNC(=O)C2CCCN(S(=O)(=O)c3ccc4c(c3)oc(=O)n4C)C2)cc1 (stereo unspecified),inactive: 98%
8,O=C(/C=C/c1ccccc1)Nc1ccc2c(c1)OCCO2,inactive: 107%
9,CC1=C(C(=O)Nc2ccc(Cl)cc2)C(c2ccccc2C)n2ncc(C(=O)Nc3ccc(C)cc3)c2N1 (stereo unspecified),inactive: 81%
10,COc1ccc(CCNC(=O)C(=O)NCC(c2ccc3c(c2)OCO3)N2CCOCC2)cc1 (stereo unspecified),active: 0%
11,Cc1cccc(OCC(=O)NC(Cc2c[nH]c3ccccc23)C(=O)O)c1C (stereo unspecified),inactive: 73%
12,COc1ccc(-n2cc(-c3ccccc3)c3c(NC4CCCCC4)ncnc32)cc1,inactive: 124%
13,O=C1OC2(c3ccccc3)C3CCCC2C13,inactive: 115%
14,O=C(Nc1cc(F)ccc1F)N1CCC(CN2CCOCC2)CC1,inactive: 112%
15,COc1ccc(CCNC(=O)Cc2nn(C)c(=O)c3ccccc23)cc1OC,inactive: 107%
16,Cc1cccc(OCCCCn2c(C3CC(=O)N(c4ccccc4Cl)C3)nc3ccccc32)c1 (stereo unspecified),active: 17%
17,Cc1ccc2c(CC(=O)Nc3cccc(Cl)c3C)coc2c1,inactive: 91%
18,Cn1c(=O)n(C/C=C/c2ccccc2)c(=O)c2c1nc1n2CCN1c1ccc(F)cc1,inactive: 89%
19,COc1ccc(S(=O)(=O)NCCc2sc(C)nc2C)cc1F,inactive: 92%
20,O=C1c2ccccc2C(=O)N1CCc1c[nH]c2ccccc12,inactive: 111%
21,Cc1ccc(-c2nc3cc(NC(=O)c4cc5ccccc5o4)ccc3o2)cc1,inactive: 80%
22,CCN1C(=O)c2ccccc2Sc2ccc(NC(=O)COc3ccc(Cl)cc3)cc21,inactive: 81%
23,CCOc1ccc(-c2cnc(NCc3ccc(C(F)(F)F)cc3)n2C)cc1,active: -12%

row,SMILES,survival
1,CN1CCN(c2ncc3c(n2)CCN(Cc2cc(Br)cs2)C3)CC1,inactive: 129%
2,COc1ccc(C(=O)CC2(O)C(=O)Nc3c(C)cccc32)c(OC)c1OC (stereo unspecified),inactive: 69%
3,CCOc1ccc(-n2c(SCC(=O)Nc3cccc(Cl)c3)nc3c(oc4ccccc43)c2=O)cc1,inactive: 71%
4,COC(=O)CSc1nc2ccccc2s1,inactive: 112%
5,Cc1cccc(N2CCN(C(=O)c3cc4c(=O)oc5ccccc5c4s3)CC2C)c1 (stereo unspecified),inactive: 63%
6,COc1ccc(CNS(=O)(=O)c2cc3c(cc2C)n(C)c(=O)c(=O)n3C)cc1,inactive: 77%
7,CC(C)CN(CC(C)C)C(=O)C1CCCN(S(=O)(=O)c2ccc3c(c2)oc(=O)n3C)C1 (stereo unspecified),inactive: 86%
8,COc1cccc(NC(=O)c2nn(-c3ccc(C)cc3)c(=O)n(C)c2=O)c1,inactive: 135%
9,Cc1cc(C)c2nc(N3CCCC(C(=O)NCc4cccc(Cl)c4)C3)sc2c1 (stereo unspecified),inactive: 76%
10,Cc1ccc(NS(=O)(=O)c2ccc3c(c2)NC(=O)C(C)C(=O)N3)cc1F (stereo unspecified),inactive: 86%
11,Cc1ccc(NC(=O)CSc2cc(=O)n(C)c3ccc(Cl)cc23)c(Br)c1,inactive: 81%
12,CCc1ccc(CNC(=O)c2ccc3nc(SCc4ccc(F)cc4)n(C)c3c2)cc1,inactive: 136%
13,CC(NC(=O)c1ccc2c(c1)N(Cc1cccc(F)c1)C(=O)c1ccccc1S2)c1ccccc1 (stereo unspecified),inactive: 71%
14,Cc1ccc(NC(=O)c2cnn(-c3ccc(C)c(C)c3)c2C2CCN(C(=O)OC(C)(C)C)CC2)c(C)c1,inactive: 137%
15,Cc1cccc(NC(=O)Cn2c(=O)n(CCC(C)C)c(=O)c3cccnc32)c1,inactive: 132%
16,CCCCN(C)CCNC(=O)c1c(C)oc2ncnc(N3CCOCC3)c12,inactive: 74%
17,Cc1oc2ccc(O)c(CN3CCOCC3)c2c1C(=O)Nc1ccccc1,inactive: 91%
18,Cc1ccc(CNc2ccc(-c3nc(C(C)C)no3)cc2[N+](=O)[O-])cc1,inactive: 76%
19,COc1cc(NC(=O)CN2C(=O)C(c3ccc(C)cc3)=NC23CCCCC3)cc(OC)c1,inactive: 84%
20,Cc1ccc(-n2nc(C(=O)N3CCN(c4cccc(C(F)(F)F)c4)CC3)c(=O)n(C)c2=O)cc1,inactive: 97%
21,O=C(CCSCCc1ccccn1)Nc1cc(F)ccc1F,inactive: 71%
22,Cc1ccc(-n2c(=O)c3c(c4cc(C)ccc4n3C)n(CC(=O)Nc3c(C)cccc3C)c2=O)cc1,inactive: 124%
23,O=c1c2sc3ccccc3c2n(Cc2ccccc2F)c(=O)n1Cc1ccccc1,inactive: 77%

row,SMILES,survival
1,CCC(CC)C(=O)Nc1cc(-c2cccc(C)c2)nn1-c1ccccc1,inactive: 69%
2,COc1cccc(CNC(=O)C2CCN(C(=O)N3CCOc4ccc(Cl)cc43)CC2)c1OC,inactive: 115%
3,COc1ccc(Cl)cc1NC(=O)c1cc(C)nc2c1c(C)nn2-c1ccccc1,inactive: 120%
4,CC1=C(C(=O)Nc2ccccc2)C(c2cccnc2)n2nc(SCc3ccccc3F)nc2N1 (stereo unspecified),inactive: 69%
5,O=c1c2cnn(-c3ccc(Cl)cc3)c2ncn1Cc1ccc(Cl)cc1Cl,inactive: 92%
6,Cc1nc2c(C(=O)NCc3ccccc3)cnn2c(C)c1Cc1ccc(F)cc1,inactive: 84%
7,Cc1ccc(Cn2c(=O)n(Cc3ccco3)c(=O)c3sc4ccccc4c32)cc1,inactive: 94%
8,CCCCC(=O)Nc1cc(C)c(O)c(-c2nc3ncccc3o2)c1,inactive: 158%
9,Cc1cccc(C(=O)Nc2cc3c(cc2N2CCCCC2)n(C)c(=O)c(=O)n3C)c1,inactive: 87%
10,O=C(CCN1CCCCC1)c1ccccc1,inactive: 92%
11,CC(=O)N1CCC2(CC1)OC(=O)C(C)=C2C(=O)Nc1cccc(Cl)c1C,inactive: 82%
12,O=C1N=C2C=CC=CN2C(=O)C1Cc1ccccc1 (stereo unspecified),inactive: 92%
13,O=C(CC1N=C2c3ccccc3N=C(SCc3ccccc3F)N2C1=O)NCCc1ccccc1 (stereo unspecified),inactive: 97%
14,CCOC(=O)Cn1cc(C#N)c2ccccc21,inactive: 98%
15,Cc1ccsc1CCN1C(=O)N(c2ccccc2)C(=O)C1CC(=O)Nc1ccc(F)cc1 (stereo unspecified),inactive: 119%
16,COc1ccc(CCC(=O)NCc2ccc3c(c2)CCN3C(=O)c2ccc(F)cc2)cc1,inactive: 67%
17,COc1ccc(-c2nc3cc(NC(=O)Cc4ccc(Cl)cc4)ccc3o2)cc1OC,inactive: 73%
18,Cc1ccc(Cl)cc1Nc1nc2ccccc2c2nncn12,inactive: 92%
19,Cc1ccc(CCNC(=O)CCN2N=C(c3ccc(C)cc3)CCC2=O)cc1,inactive: 136%
20,Cc1cccc(C)c1NC(=O)c1ccc2c(c1)N(Cc1cccc(Cl)c1)C(=O)c1ccccc1S2=O (stereo unspecified),inactive: 145%
21,CCOC(=O)c1ccc(NC(=O)Cn2nc(SC)c(S(=O)(=O)c3ccc(Cl)cc3)c2N)cc1,inactive: 64%
22,CC(C)CC(=O)Nc1nnc(S(=O)(=O)N2CCCCCC2)s1,inactive: 116%
23,Cc1ccc(C(=O)N(Cc2sccc2C)C2CCS(=O)(=O)C2)cc1 (stereo unspecified),inactive: 95%

row,SMILES,survival
1,Cc1nc(C)c(-c2ccc(SCC(=O)Nc3ccc(Cl)c(Cl)c3)nn2)s1,inactive: 64%
2,COc1ccccc1NC(=O)N1c2ccccc2Sc2ccccc21,active: -1%
3,COc1ccc(OC)c(-n2nnc3c(sc4nc(C)c(Br)c(C)c43)c2=O)c1,inactive: 81%
4,COc1ccccc1NC(=O)N(Cc1cc2c(C)ccc(C)c2[nH]c1=O)CC1CCCO1 (stereo unspecified),inactive: 117%
5,COCCCNC(=O)CCCn1c(SCC(=O)c2ccc(F)cc2)nc2c(sc3ccccc32)c1=O,inactive: 103%
6,COc1ccc(CNC(=O)CSc2ncc3c(n2)-c2ccc(Cl)cc2N(Cc2ccc(F)cc2)S3(=O)=O)cc1OC,inactive: 118%
7,CCOc1cc(Br)cc(C2NC(=O)c3c(sc4c3CCN(C)C4)N2)c1O (stereo unspecified),inactive: 84%
8,CCC1CCCCN1C(=O)c1cc2cc(OC)ccc2oc1=O (stereo unspecified),inactive: 108%
9,CC(C)(C)c1ccc(C(=O)NCC(c2ccco2)S(=O)(=O)c2ccc(F)cc2)cc1 (stereo unspecified),inactive: 131%
10,CCCCNc1c2c(c(C#N)c3nc4ccccc4n13)CCC2,inactive: 106%
11,CN(C)c1ccc(CNC(=O)c2ccc(Cn3c(=O)c4cccn4c4cccnc43)cc2)cc1,inactive: 87%
12,CCOC(=O)c1ccc(NC(=O)CSc2nnc3c4ccccc4n(CC)c3n2)cc1,inactive: 81%
13,O=C(CSc1c2c(nc3ccccc13)CCC2)Nc1ccc(F)cc1,inactive: 111%
14,COc1ccc(Cn2c(C(=O)O)c(CNCc3ccco3)c3ccc(OC)cc32)cc1,inactive: 84%
15,CC(C)c1c(O)c2ccccc2[nH]c1=O,inactive: 118%
16,COc1ccc(-n2cnc3cc(C(=O)NC4CCCC4)ccc32)cc1,inactive: 73%
17,Cc1ccc(Cn2c(CNC(=O)CCc3ccccc3)nc3cccnc32)cc1,inactive: 99%
18,Cc1cccc(N2CCN(Cc3nnc(-c4ccccc4C)o3)CC2C)c1 (stereo unspecified),inactive: 21%
19,COc1ccc(C2=Nc3ccc(F)cc3NC(c3cccc(C(F)(F)F)c3)=N2)cc1,inactive: 63%
20,CCCOc1ccc(C(=O)N(Cc2ccccc2Cl)C2CCS(=O)(=O)C2)cc1 (stereo unspecified),inactive: 98%
21,CCc1ccc2ncc(C(=O)c3ccc(C)c(C)c3)c(N3CCC(C(N)=O)CC3)c2c1,inactive: 102%
22,COC(=O)c1ccccc1NC(=O)c1cnc(Nc2ccc(OC)cc2)c2ccccc12,inactive: 68%
